# Assay results: article PMC7819943, “Rice protein-binding microarrays: a tool to detect cis-acting elements near promoter regions in rice”
# Some of the results follow.
# Molecular target: T1, OsWOX13 (Oryza sativa, UniProt Q5QMM3 1-267)
# T1 sequence: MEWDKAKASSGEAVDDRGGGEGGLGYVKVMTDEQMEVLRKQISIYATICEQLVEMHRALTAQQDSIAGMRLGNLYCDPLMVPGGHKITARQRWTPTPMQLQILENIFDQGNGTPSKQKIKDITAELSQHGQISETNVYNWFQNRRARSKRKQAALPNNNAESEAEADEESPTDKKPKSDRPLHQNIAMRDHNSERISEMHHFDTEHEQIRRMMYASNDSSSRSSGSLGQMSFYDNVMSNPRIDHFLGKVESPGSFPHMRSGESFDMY
# Assay: protein-binding microarray (RPBM); PBS, 2% BSA, 51.3 ng/ul salmon testes DNA, 50 uM zinc acetate, 200 nM TF, 25 C, 1 h; high values mean tight binding
# Details: protein: recombinant; tags: N-terminal polyhistidine and DsRed monomer fusion (pET32a); label: CyDye5-dUTP incorporated in the synthesized complementary strand; 3' TTTTT single-stranded linker to array surface; dsDNA, one strand shown
# Procedure, shortened: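 Transcription factors were made in E. coli BL21-CodonPlus as N-terminal fusions to a polyhistidine tag and DsRed, then purified on Ni–NTA. After primer extension with Cy5-dUTP and blocking with 2% BSA, a custom Agilent array was exposed for 1 h at 25 °C to 200 nM protein in PBS, 2% BSA, salmon testes DNA and 50 µM zinc acetate. Washed arrays were scanned on an Axon 4000B, and the binding signal is per-feature fluorescence intensity in arbitrary units.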
row,Sequence,binding signal
1,CGGGTTAGATTATAATTGTAAATTTCAGTTCAATTTGCAGCGGAGTCACCTAGTGCAG,21900 fluorescence intensity (a.u.)
2,CACATTGTTCCAATTTCAATCAAACTCTCAATTTTGACGTCGGAGTCACCTAGTGCAG,5040 fluorescence intensity (a.u.)
3,AAAATTGAGTCCAAATCAAACAAGTTAATTTCGCGCATCTCGGAGTCACCTAGTGCAG,24400 fluorescence intensity (a.u.)
4,TAGGATTGAAATCCTTCAAATTTCCTACACTTTTCCTACACGGAGTCACCTAGTGCAG,14500 fluorescence intensity (a.u.)
5,TTCAAAAGATTAGAATAAATTGAGTTCAAACAATTCAAATCGGAGTCACCTAGTGCAG,5660 fluorescence intensity (a.u.)
6,CTCCCAATTATCCTCTCCTCCTCTGCTTCATCTCCACCACCGGAGTCACCTAGTGCAG,6500 fluorescence intensity (a.u.)
7,AAAATTATCCAATCTTCACCTCCCACACCCCGAGCTCGAGCGGAGTCACCTAGTGCAG,4600 fluorescence intensity (a.u.)
8,ATAACAATAATTAATCAGCACGAGACAAGTCCCTATCCAACGGAGTCACCTAGTGCAG,16000 fluorescence intensity (a.u.)
9,TATAATTGCCGAATCAGTTAGAAGACATTTTCATTGATAGCGGAGTCACCTAGTGCAG,21800 fluorescence intensity (a.u.)
10,AAGCGAAGAGCTCTGATTGCTGGTGGTGATGATTACCGGACGGAGTCACCTAGTGCAG,6620 fluorescence intensity (a.u.)
11,ATTGATCAAAATTTTCCTCTCGTTGTTCTGCTTAGTACTGCGGAGTCACCTAGTGCAG,6770 fluorescence intensity (a.u.)
12,AAAATAAATAATCTAACGTTACTAACAAAGTTAATGGTGTCGGAGTCACCTAGTGCAG,3730 fluorescence intensity (a.u.)
13,ATAAATATATTGTACTAACATATGCTAATTTATTGTGTAACGGAGTCACCTAGTGCAG,5570 fluorescence intensity (a.u.)
14,GTCCAATCTTTCAATGAAATTGTTCTTTGGGCTCTAACGTCGGAGTCACCTAGTGCAG,3870 fluorescence intensity (a.u.)
15,AAATAAATTATCCTGTGAATTAACTATGCTGCTAATTGCTCGGAGTCACCTAGTGCAG,22900 fluorescence intensity (a.u.)
16,AAAATATAATTATTGTTGTGAATATTACTTTATACGTGACCGGAGTCACCTAGTGCAG,12100 fluorescence intensity (a.u.)
17,AACTAATTTAATAAATGAGAGCTAATCCGCGAGACGAATTCGGAGTCACCTAGTGCAG,21100 fluorescence intensity (a.u.)
18,AACCAACGGTCAGATTTAATTGGTACCTGGTACCTCATAGCGGAGTCACCTAGTGCAG,3830 fluorescence intensity (a.u.)
19,TAAAATTACCGGCCCGGATGAAACAGTCACGCCTAACTACCGGAGTCACCTAGTGCAG,3880 fluorescence intensity (a.u.)
20,TTATTTATAAAACTAATTACATAAATGAGAGCTAATCTGCCGGAGTCACCTAGTGCAG,3810 fluorescence intensity (a.u.)
21,GAATTAATTAGTACTTGAATACTTGATCTCTAGATATATGCGGAGTCACCTAGTGCAG,20500 fluorescence intensity (a.u.)
22,GCCAAGTTTAATCATGCATTGTAATTATACTAGAGGGAGTCGGAGTCACCTAGTGCAG,11500 fluorescence intensity (a.u.)
23,TTTGACAGGCCATCAGGTTAACAGCATAATACTTGTGATTCGGAGTCACCTAGTGCAG,27200 fluorescence intensity (a.u.)
